Measurements from ChEMBL document CHEMBL4888484, “Replenishing the malaria drug discovery pipeline: Screening and hit evaluation of the MMV Hit Generation Library 1 (HGL1) against asexual blood stage Plasmodium falciparum ,using a nano luciferase reporter read-out” (2022).
The whole screen tested about 150,000 compounds, of which about 540 (0.36%) showed an effect of 50% or more. The list shows a part of the results.

The compounds below were run on Plasmodium falciparum (assay: Primary screen in NF54 nanoGlo assay, in single point, at 2uM, 72h; a lower Z score goes with more inhibition). Conditions: timepoint 72 hour.
Format: functional, Erythrocyte
In the case of COc1ccccc1C1(c2nnc(-c3ccc(S(C)(=O)=O)cc3)o2)CCOCC1, the “% Inhibition” value is reported as -8% and the Z score is reported as 1.51. For Cc1cc2nc(-c3cccc4ncccc34)[nH]c2cc1C, the “% Inhibition” value was -8% and the Z score was 1.6. In the case of O=C(c1ccc2ccncc2c1)N1CCC[C@@H]1CO, the “% Inhibition” value is reported as -5% and the Z score is reported as 0.85. For Cc1ccc(NC(=O)N[C@H](C(=O)OC(C)(C)C)C(C)C)cc1, the “% Inhibition” value was -13% and the Z score was 2.4. For Cc1noc(C)c1CCC(=O)N1CCC[C@H](C(=O)c2ccc3c(c2)OCO3)C1, the “% Inhibition” value was 4% and the Z score was -0.59. O=C(c1cnn(-c2ccc(F)cc2F)c1)N1CCC[C@@H]1CO was tested, and the “% Inhibition” value was 1% and the Z score was -0.21. With Cn1ccc2c(OCC(=O)N3CCOCC3)cccc21 the “% Inhibition” value was -1% and the Z score was 0.14. With CCn1cc(-c2n[nH]cc2Br)cn1 the “% Inhibition” value was -7% and the Z score was 1.14. With COC(=O)c1ncccc1OCc1coc(-c2c(F)cccc2F)n1 the “% Inhibition” value was -1% and the Z score was 0.08. In the case of Cc1ccc(-c2nc3cccnc3s2)cc1NS(=O)(=O)c1ccc(Cl)s1, the “% Inhibition” value is reported as -3% and the Z score is reported as 0.6. For Cc1ccc(NC(=O)N(CCC#N)C(C)C)cc1Cl, the “% Inhibition” value was -5% and the Z score was 0.51. In the case of CCOC1CC(NC(=O)N2CCS(=O)(=O)C(C)C2C)C12CCCO2 (stereo not given), the “% Inhibition” value is reported as -3% and the Z score is reported as 0.61. For COc1ccc(-n2nc(C)c3sc(N4CCC(NC(=O)C5CCC5)CC4)nc32)cc1, the “% Inhibition” value was -2% and the Z score was 0.25. CN(C)S(=O)(=O)c1ccc(-c2noc(-c3ccnn3C)n2)cc1 was tested, and the “% Inhibition” value was -1% and the Z score was 0.13. Cn1cnnc1CNC(=O)c1cc2c(Cl)cccc2s1 was tested, and the “% Inhibition” value was -15% and the Z score was 2.76. In the case of CN1C[C@@H](CNCc2ccnn2C)Cc2ccccc21, the “% Inhibition” value is reported as -10% and the Z score is reported as 1.47. For O=C(c1c(F)cccc1F)N1CCN(c2cc(N3CCCC3)ncn2)CC1, the “% Inhibition” value was -11% and the Z score was 1.22. CCN(c1ccccc1)c1noc([C@H]2CC(=O)N(CC)[C@@H]2c2cnn(C)c2C)n1 was tested, and the “% Inhibition” value was -9% and the Z score was 1.44. With COc1cccc(NC(=O)Cn2c(C)ncc(-c3nc(-c4ccccc4)cs3)c2=O)c1 the “% Inhibition” value was -4% and the Z score was 0.55. For CNC(=O)c1cc(S(=O)(=O)N2CC(Oc3cccc(C)c3)C2)cs1, the “% Inhibition” value was 4% and the Z score was -0.66. For CCc1n[nH]c(C(=O)N2CC3CCCN3CC2CC)c1Br (stereo not given), the “% Inhibition” value was 29% and the Z score was -1.03. In the case of Cc1cc(C#N)nc(NC2CCCCCC2)n1, the “% Inhibition” value is reported as -4% and the Z score is reported as 0.49. For COC(=O)CN[C@@H](C)C1CCOCC1, the “% Inhibition” value was -10% and the Z score was 1.33. O=C(NCCN1Cc2cc(Cl)ccc2OCC1=O)c1cnccn1 was tested, and the “% Inhibition” value was -13% and the Z score was 2.22. In the case of FC1(F)CC(COc2ncccn2)C1, the “% Inhibition” value is reported as 10% and the Z score is reported as -1.67. COC(=O)C1CCN(c2cc(=O)n(-c3ccccc3Cl)c(=O)[nH]2)CC1 was tested, and the “% Inhibition” value was -12% and the Z score was 2.34. In the case of CCCN1CCN(c2ncc3c(n2)CCN(Cc2ccc(C)c(C)c2)C3)CC1, the “% Inhibition” value is reported as 0% and the Z score is reported as 0.03. With O=C(Nc1nnc(-c2c(F)cccc2Cl)s1)N1CC2CCC1CN2 (stereo not given) the “% Inhibition” value was -7% and the Z score was 0.64. In the case of Cc1nc(-c2cccc(NC(=O)C3CN(C(=O)COc4ccccc4F)C3)c2)cs1, the “% Inhibition” value is reported as -2% and the Z score is reported as 0.34. In the case of CCOC(=O)C(C)C(C)Nc1ncc(F)cn1 (stereo not given), the “% Inhibition” value is reported as -8% and the Z score is reported as 1.2. In the case of Cc1ccc(C(=O)N2CC3(C[C@H](N4CCCC4)CO3)C2)s1, the “% Inhibition” value is reported as -21% and the Z score is reported as 2.48. In the case of COc1ccc(F)cc1-c1cc(-c2ccc[nH]2)nc(N)c1C#N, the “% Inhibition” value is reported as 6% and the Z score is reported as -0.89. In the case of COc1cc(CNCc2ccc(C)cc2)cc(Cl)c1OCc1cccs1, the “% Inhibition” value is reported as -32% and the Z score is reported as 3.78. With Cc1ccc(CN(c2ccc(C(=O)NC3CCN(C)CC3)cc2)S(C)(=O)=O)cc1 the “% Inhibition” value was 1% and the Z score was -0.19. With CCN(CCNC(=O)C1CC1c1cccc(Cl)c1Cl)CC(F)F (stereo not given) the “% Inhibition” value was 37% and the Z score was -4.14. In the case of CCC1=Nc2ccccc2N=C(NC(=O)C(C)C)[C@H]1c1ccc(F)cc1, the “% Inhibition” value is reported as 64% and the Z score is reported as -2.85. In the case of CCc1cc(NCc2cc(=O)cc[nH]2)nc(CC)n1, the “% Inhibition” value is reported as -11% and the Z score is reported as 2.04. CN1CCN(CC(=O)Nc2nc(-c3ccc(Cl)cc3)cs2)CC1 was tested, and the “% Inhibition” value was -18% and the Z score was 2.6. With COc1ncc(NC(=O)Nc2cccc(C(F)(F)F)c2)c(N2CCCC2)n1 the “% Inhibition” value was 25% and the Z score was -3.84. With CN1CCC(NC(=O)N2CCCCC2CCO)C1c1ccc(F)cc1 (stereo not given) the “% Inhibition” value was -5% and the Z score was 0.57. CC(C)CCn1ccc(NC(=O)N2CCCN(C)CC2)n1 was tested, and the “% Inhibition” value was -9% and the Z score was 1.09. For Cc1ncoc1CNC(=O)[C@H]1CC(=O)N(C)[C@@H]1c1cccc(F)c1, the “% Inhibition” value was -9% and the Z score was 1.26. c1ccc(-c2nc(CN3CCc4sccc4C3)cs2)nc1 was tested, and the “% Inhibition” value was -6% and the Z score was 1.14. For Cc1c(NC(=O)CCn2nnnc2C)c(N2CCCC2)nn1C, the “% Inhibition” value was -9% and the Z score was 1.83. For CC(C)c1nnc(CN(C)c2ccc(F)c(F)c2)o1, the “% Inhibition” value was -1% and the Z score was 0.15. Cc1ccc2oc(CN(Cc3cc(F)ccc3F)C(=O)C3C[C@@H]3c3ccccc3)nc2c1 (stereo not given in full) was tested, and the “% Inhibition” value was 3% and the Z score was -0.34. For CCc1nn(C)c(Cl)c1CN1CCCC[C@H]1C(=O)NC, the “% Inhibition” value was 13% and the Z score was -1.24. For N#Cc1cc(S(=O)(=O)NCC(F)(F)F)ccc1NCC1CC1, the “% Inhibition” value was 0% and the Z score was 0.05. With Cc1ccc(N2CCN(Cc3nc(C(=O)Nc4ccc(F)cc4)co3)CC2)cc1 the “% Inhibition” value was -14% and the Z score was 1.33. With Cc1noc(C)c1CN1CC(c2nc(CCN(C)C(=O)C3CCOCC3)no2)C1 the “% Inhibition” value was 1% and the Z score was -0.12. For COc1ccc(OCc2nc3ccc(F)cc3o2)c(C(N)=O)c1, the “% Inhibition” value was -14% and the Z score was 1.44. With O=C(c1n[nH]c2c1CCCC2)N1CCCCC1 the “% Inhibition” value was -10% and the Z score was 1.52. In the case of COCc1noc([C@@H]2CN(C(=O)CCc3c(C)noc3C)C[C@H]2C(N)=O)n1, the “% Inhibition” value is reported as -14% and the Z score is reported as 2.13. COc1cccc([C@H]2CN(Cc3csc(C)n3)C[C@@H]2C(=O)O)c1OC was tested, and the “% Inhibition” value was -6% and the Z score was 0.78. With CCNC(=O)Cn1ccc(N[C@@H](C)COC)n1 the “% Inhibition” value was -7% and the Z score was 0.94.
